# Source: PubChem BioAssay AID1948 (National Center for Advancing Translational Sciences (NCATS), 2009)
# About 20 (0.02%) of roughly 110,000 compounds were called active. The inconclusive results got no clear call from the source; some entries with a clear call stand among them for comparison. Calls follow the shape of the dose curve; as a rule, active = well fitted activation curve with a large enough effect; inconclusive = small, poorly fitted or top-dose-only effect; inactive = no such curve, though single readings can be large or run the other way. No potency is given beside an inconclusive call; the fits are too rough.
# Experiment: qHTS Assay for Compounds that Induce Erasure of Genomic Imprints;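 as to activity change, positive = activation: 0% = negative control wells on the plate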
# Conditions: mouse ES Peg3-LacZ reporter, beta-gal luminescence, 40 h; activity change, positive = activation: at 10.9 µM (top of the series) unless noted
# In short: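 Imprint erasure is scored as LacZ activity from the silenced maternal Peg3 allele in feeder-free female ES cells cultured 40 h with LIF. Luminescence is normalized to in-plate negative controls and fitted to the Hill equation.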
# Potency is read from the fitted curve at half-maximal effect; tags tell the direction and shape of the fitted curve.
SMILES,Potency,"activity change, positive = activation"
COc1ccc(C2/C(=C(\O)c3cc(C)ccc3C)C(=O)C(=O)N2CCN(C)C)cc1OC (configuration not stated),"inconclusive [activator, single point]",–
CSc1ncc(Cl)c(C(=O)Nc2ccc(S(=O)(=O)N3CCCC(C)C3)cc2)n1 (configuration not stated),–,inconclusive: 47.4% [activator]
CC(=O)NCCSC(=O)c1ccc(F)cc1,inactive,–
COc1cccc(NC(=O)Cn2c(=O)n(CC(=O)NCc3ccc(C)cc3)c(=O)c3sccc32)c1,inactive,–
Cc1nn(-c2ccccc2)c2sc(C(=O)OCN3C(=O)c4ccccc4C3=O)cc12,inactive,–
Cc1cccc(CNC(=O)c2oc3c(c2C)-c2nn(Cc4cccc(Cl)c4)cc2CC3)c1,–,inconclusive: 34.1% [activator]
CN(C)Cc1ccccc1-c1nc(NCc2cccs2)c2ccccc2n1,"inconclusive [activator, single point]",–
Cn1c(=O)oc2cc(S(=O)(=O)CCC(=O)N3CCN(c4cccc(Cl)c4)CC3)ccc21,inactive,–
CCCCNC(=O)CCCCCn1c(=O)[nH]c2ccccc2c1=O,–,inconclusive: 38.5% [activator]
O=C(C1CCCN(S(=O)(=O)c2cccc3nonc23)C1)N1CCC(Cc2ccccc2)CC1 (configuration not stated),"inconclusive [activator, single point]",–
COc1cc(NC(=O)c2ccc(-c3nc(CSc4ccccc4)c(C)o3)cc2)cc(OC)c1,inactive,–
CCOc1ccc(CNc2cc(C)nc3nc(-c4cccc(C)c4)nn23)cc1OC,inactive,–
Cc1cccc(NC(=O)c2ccc3oc(=O)c(S(=O)(=O)c4ccc(F)cc4)cc3c2)c1C,inactive,–
COc1ccccc1OCc1nc2ccccc2n1Cc1ccccc1,inactive,–
Cc1cnc(CNc2cc(-c3cccnc3)ncn2)cn1,"inconclusive [activator, single point]",–
O=S(=O)(NCC(c1cccs1)S(=O)(=O)c1ccccc1)c1ccccc1 (configuration not stated),–,inconclusive: 41% [activator]
Cc1cc(C)n(-c2nc3ccccc3nc2Nc2ccc3[nH]c(=O)[nH]c3c2)n1,inactive,–
CCCN1CCN(C(=O)Cn2ncc3ccccc32)CC1,"inconclusive [activator, single point]",–
CCCCC(CC)CO (configuration not stated),inactive,–
COCCSc1ccccc1C(=O)NCCCn1ccnc1,inactive,–
Cc1ccccc1Cn1c(COc2ccc(Cl)cc2)nc2ccccc21,–,inconclusive: 41.3% [activator]
CC1=C(C(=O)NCc2ccccc2)C(c2cccnc2)n2ncnc2N1 (configuration not stated),"inconclusive [activator, single point]",–
CCC(Sc1nnc(-c2ccc(OC)c(OC)c2)c(-c2ccc(OC)c(OC)c2)n1)C(=O)NC1CCCC1 (configuration not stated),–,inconclusive: 64.3% [activator]
Cc1cnc(CNc2cc(-c3ccccc3Cl)ncn2)cn1,"inconclusive [activator, single point]",–
CSCCC(N=Cc1c(O)n(-c2ccc(F)cc2)c(=O)[nH]c1=O)C(=O)O (configuration not stated),"inconclusive [activator, single point]",–
Nc1nccc(Nc2ccc(S(N)(=O)=O)cc2)n1,inactive,–

SMILES,Potency,"activity change, positive = activation"
O=C(COc1ccccc1F)Nc1ccc(OCc2cc(=O)n3ccccc3n2)cc1,–,inconclusive: 35% [activator]
O=C(OCC(=O)N1CCN(C(=O)c2ccco2)CC1)c1ccccc1C(=O)c1ccccc1,"inconclusive [activator, single point]",–
Cc1ccc2c(=O)cc(C(=O)Nc3sc4c(c3C(=O)NCC3CCCO3)CCCC4)oc2c1 (configuration not stated),inactive,–
CCC(Sc1nc2ncccc2o1)C(=O)Nc1ccc(OC)c(OC)c1 (configuration not stated),inactive,–
CCC(=O)N1CCc2cc(S(=O)(=O)N3CCN(C(=O)c4ccco4)CC3)ccc21,"inconclusive [activator, single point]",–
CCOc1ccc(N2CC(NC(=O)C3CC3)CC2=O)cc1 (configuration not stated),–,inconclusive: 68.4% [activator]
COc1ccc(-n2nc(C(=O)NCc3ccc(F)cc3Cl)c3c4ccccc4n(C)c3c2=O)cc1Cl,–,inconclusive: 53.8% [activator]
CCN(CC)C(=O)CSc1nc2ccccc2c(=O)[nH]1,"inconclusive [activator, single point]",–
CC(C)=CC1C(C(=O)O)C1(C)C (configuration not stated),"inconclusive [activator, single point]",–
CC1(C)Cc2nc3oc4c(N(CCO)Cc5ccccc5)ncnc4c3cc2CO1,inactive,–
O=C(CCCn1c(=O)c2cccn2c2ccccc21)NCc1ccccc1Br,inactive,–
CCOC(=O)COc1cccc2c(=O)n(CC(=O)N3CCc4ccccc43)ccc12,inactive,–
O=C(Cn1cnc2onc(-c3ccc(Cl)cc3)c2c1=O)Nc1ccc(F)cc1,inactive,–
Cc1ccccc1-c1noc(-c2ccc(N3CCN(C)CC3)c([N+](=O)[O-])c2)n1,–,inconclusive: 139% [activator]
CCOc1ccc(CCNC(=O)CSc2nnnn2-c2ccc(C)cc2C)cc1OCC,inactive,–
c1coc(CSCc2cn3cccnc3n2)c1,inactive,–
Cc1c(C(=O)OC2CCCCCC2)[nH]c2c1C(=O)CC(c1ccc(N(C)C)cc1)C2 (configuration not stated),–,inconclusive: 33.1% [activator]
CCCCNC(=O)CCn1c(=O)c2cccn2c2cccnc21,–,inconclusive: 123% [activator]
O=c1c2oc3ccccc3c2n(Cc2ccc(Cl)cc2)c(=O)n1Cc1ccccc1,–,inconclusive: 44.5% [activator]
CCS(=O)(=O)c1ncc(Cl)c(C(=O)NCc2ccccc2)n1,inactive,–
COc1cccc(-c2nccc(NCCc3c[nH]c4ccc(OC)cc34)n2)c1,"inconclusive [activator, single point]",–
O=C(O)c1ccc(NC(=O)c2cc3ccccc3o2)cc1,inactive,–
O=C(CSc1nc2c([nH]c3ccccc32)c(=O)n1-c1ccccc1)N1CCCCCC1,inactive,–
O=C(c1c[nH]c2ccccc12)C(O)C(c1ccccc1)N1CCOCC1 (configuration not stated),"inconclusive [activator, single point]",–
COc1ncc2nc(-c3cc(F)cc(F)c3)c(=O)n(-c3ccccc3)c2n1,"inconclusive [activator, single point]",–
CCN1CCN(C(=O)Cn2ncc3ccsc3c2=O)CC1,inactive,–

SMILES,Potency,"activity change, positive = activation"
O=C(CSc1nc2ccccc2c(=O)n1CCCC(=O)N1CCCC1)NCc1ccco1,"inconclusive [activator, single point]",–
CCCOc1ccc(C2C(C(=O)OC)=CN(CCOC)C=C2C(=O)OC)cc1,inactive,–
CCOC(=O)CC(=O)CSc1nc2ccccc2c(=O)n1CCc1ccc(S(N)(=O)=O)cc1,inactive,–
CSCCC(NC(=O)C1CCC(C)CC1)C(=O)NCCN1CCOCC1 (configuration not stated),"inconclusive [activator, single point]",–
CC(N)C12CC3CC(C1)CC(C(C)N)(C3)C2 (configuration not stated),"inconclusive [activator, single point]",–
CN(Cc1ccccc1)S(=O)(=O)c1ccc(S(=O)(=O)N2CCN(CCC#N)CC2)cc1,"inconclusive [activator, single point]",–
CCOc1ccccc1NC(=O)c1ccc2c(Cl)c3c(nc2c1)CCCC3,–,inconclusive: 32.6% [activator]
COc1ccc(-c2nc3cnc(N4CCN(C)CC4)nc3n(CCc3ccccc3)c2=O)cc1,"inconclusive [activator, partial curve]",–
Cc1nc2cnc(Oc3ccccc3)nc2n(C)c1=O,"inconclusive [activator, single point]",–
COc1ccccc1CCn1c(=O)c(-c2cccc(F)c2)nc2cncnc21,"inconclusive [activator, single point]",–
COc1ccc(N2CCN(C(=O)Cn3nc(Cc4cccnc4)c4ccccc4c3=O)CC2)cc1,inactive,–
O=C(c1cccc2cccc(O)c12)N1CCCCC1,"inconclusive [activator, single point]",–
O=C(O)CC(C(=O)OC1CCCCC1)N1CCOCC1 (configuration not stated),"inconclusive [activator, single point]",–
COc1ccc(CNC(=O)c2ccc3c(c2)N(Cc2ccccc2C)C(=O)c2ccccc2S3=O)cc1 (configuration not stated),–,inconclusive: 36.7% [activator]
COc1cc(-c2noc(-c3ccc(NC4CCCC4)c([N+](=O)[O-])c3)n2)cc(OC)c1OC,–,inconclusive: 31.6% [activator]
N#Cc1c(N)nc(SC2CCCCC2=O)c(C#N)c1-c1ccco1 (configuration not stated),inactive,–
CCOC(=O)c1cc(-c2ccccc2)n(CC(=O)NCc2ccccc2)c1C,inactive,–
NCC(=O)N[C@H](CO)C(=O)O,"inconclusive [activator, partial curve]",–
O=C(NCc1ccco1)c1cc2cc3ccc(Cl)cc3nc2o1,inactive,–
COc1ccc(-c2nc(-c3cccc(C)c3)no2)cc1OC,"inconclusive [activator, single point]",–
COc1ccc2c(c1)C(c1cc(OC)c(OC)c(OC)c1)CC(=O)O2 (configuration not stated),inactive,–
CC(NC(=O)C1CCC1)c1ccc(Cl)cc1 (configuration not stated),"inconclusive [activator, single point]",–
CCCCN(C)CCCNC(=O)c1cc(-c2cccnc2)nc2ccccc12,–,inconclusive: 80.4% [activator]
COC(=O)c1c(N)nc(C)n1-c1ccc(OC)cc1,"inconclusive [activator, full curve, poor fit]",–
O=C(CN1CCN(C2CCCCC2)CC1)Nc1ccccc1N1CCCCC1,"inconclusive [activator, partial curve]",–
